Experimental data published in paper PMC4336329 (PLoS ONE, 2015).
Among all 310,000 compounds or so, about 2,200 (0.71%) showed an effect of 50% or more. The effect is printed as a negative number. The list shows a part of the results.

These compounds were tested against human ether-à-go-go-related gene (hERG) potassium channel (human, UniProt Q12809) (assay: primary screen, population patch clamp on CHO cells stably expressing hERG).
Chain of human ether-à-go-go-related gene (hERG) potassium channel (Q12809 whole entry, looked up): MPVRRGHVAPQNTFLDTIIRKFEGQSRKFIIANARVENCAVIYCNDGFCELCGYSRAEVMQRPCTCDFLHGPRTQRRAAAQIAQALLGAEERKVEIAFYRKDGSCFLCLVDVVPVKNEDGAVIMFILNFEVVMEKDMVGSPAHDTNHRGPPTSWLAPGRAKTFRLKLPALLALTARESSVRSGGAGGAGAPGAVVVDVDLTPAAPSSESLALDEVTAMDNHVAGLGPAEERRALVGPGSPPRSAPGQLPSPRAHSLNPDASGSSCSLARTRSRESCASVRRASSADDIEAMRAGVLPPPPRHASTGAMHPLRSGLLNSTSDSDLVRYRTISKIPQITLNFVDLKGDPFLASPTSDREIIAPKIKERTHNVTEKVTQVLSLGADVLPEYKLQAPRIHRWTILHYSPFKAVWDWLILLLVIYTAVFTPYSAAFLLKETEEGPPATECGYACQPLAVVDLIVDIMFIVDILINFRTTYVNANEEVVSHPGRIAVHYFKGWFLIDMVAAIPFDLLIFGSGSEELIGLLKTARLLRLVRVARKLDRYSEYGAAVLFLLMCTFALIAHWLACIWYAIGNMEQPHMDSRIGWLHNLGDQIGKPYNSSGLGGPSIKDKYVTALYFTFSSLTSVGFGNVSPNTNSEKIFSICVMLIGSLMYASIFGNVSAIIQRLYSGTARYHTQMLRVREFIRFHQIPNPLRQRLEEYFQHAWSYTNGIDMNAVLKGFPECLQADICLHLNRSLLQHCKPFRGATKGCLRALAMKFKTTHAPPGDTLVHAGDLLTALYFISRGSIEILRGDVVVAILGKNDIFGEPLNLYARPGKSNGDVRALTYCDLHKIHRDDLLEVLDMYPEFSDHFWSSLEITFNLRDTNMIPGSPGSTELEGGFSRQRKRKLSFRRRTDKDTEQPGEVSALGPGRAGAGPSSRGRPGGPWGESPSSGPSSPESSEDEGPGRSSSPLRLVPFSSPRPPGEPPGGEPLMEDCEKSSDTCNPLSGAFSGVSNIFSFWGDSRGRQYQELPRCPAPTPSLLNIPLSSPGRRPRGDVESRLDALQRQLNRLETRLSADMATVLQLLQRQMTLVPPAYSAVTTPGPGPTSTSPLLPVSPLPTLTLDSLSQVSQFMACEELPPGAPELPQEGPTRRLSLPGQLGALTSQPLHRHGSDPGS

Row | SMILES | hERG current change (%, negative = inhibition) at 1uM [%]
1 | COc1cc(CO)c(OC)c([N+](=O)[O-])c1 | 16.7
2 | COc1cccc(C2c3[nH]c4ccccc4c3C[C@H]3C(=O)N(CCCCCO)CC(=O)N23)c1 (some centres unmarked) | -33
3 | Cc1ccc2nc(/C(C#N)=C\c3cc(C)n(-c4cccc([N+](=O)[O-])c4)c3C)[nH]c2c1 | 7.16
4 | CN(CC(=O)N1CCCCC1)S(=O)(=O)c1cccc2cccnc12 | -1.06
5 | CC(C)(C)c1ccc(NC(=O)c2c(F)cccc2Cl)cc1 | 0.498
6 | CC1=C(C(N)=O)C(c2ccco2)C(C(N)=O)=C(C)N1 | 16.4
7 | COc1ccc(C(=O)COC(=O)C(C)N2C(=O)C3C4CCC(C4)C3C2=O)cc1 (centres unmarked) | 6.25
8 | COc1ccc([C@@H]2[C@@H]3C(=O)N(C(C)(C)C)C(=O)[C@@H]3[C@]3(C)C(=O)N(c4cccc(F)c4)C(=O)N23)cc1 | 10
9 | COCCCNC(=O)c1ccc(N2CCCC2)c(NS(=O)(=O)c2ccc(C)cc2)c1 | 0.617
10 | CCOc1ccccc1CN1CCCC(C(=O)c2cc(F)ccc2F)C1 (centres unmarked) | -16.6
11 | NS(=O)(=O)c1ccc(CNC(=O)/C=C/c2c(Cl)cccc2Cl)cc1 | 8.52
12 | O=C(N/N=C/c1ccc(N2CCCCC2)o1)C(O)(c1ccccc1)c1ccccc1 | 12.3
13 | Cc1ncc([N+](=O)[O-])n1CCOC(=O)C12CC3CC(CC(C3)C1)C2 | 11.6
14 | OCC1CCCN(C(=S)Nc2ccc(OC(F)F)cc2)C1 (centres unmarked) | 6.07
15 | COc1cc(NS(=O)(=O)c2ccc(NC(=O)c3cccnc3)cc2)ncn1 | 5.26
16 | CCCCCCCC(=O)N/N=C/c1cccnc1 | -1.71
17 | CCc1ccccc1NC(=O)CSc1nnc([C@@H](N)Cc2ccccc2)o1.Cl | 3.44
18 | O=C(C[N+]1(CC#Cc2ccccc2)CCOCC1)c1ccc(Cl)cc1.[Br-] | -1.59
19 | COc1ccc(CN2CCN(c3ccccn3)CC2)c(OC)c1 | -52
20 | COc1cccc(N/C(SCc2ccccc2C)=C(/C#N)C(=O)NCc2cccs2)c1 | 7.18
21 | FC(F)(F)c1cc(-c2cccs2)nc(NCc2ccco2)n1 | 11.6
22 | COc1cccc(CN2CCNC(=O)C2CC(=O)NCCc2ccccn2)c1 (centres unmarked) | 17.1

Row | SMILES | hERG current change (%, negative = inhibition) at 1uM [%]
23 | CCc1nc2ccc(C(=O)NCCc3ccc(OC)c(OC)c3)cc2nc1CC | 15.7
24 | COCCn1c(SCC(=O)N2CC(=O)Nc3ccccc32)nnc1-c1ccoc1C | 7.41
25 | CCC(C)NC(=O)CN(c1cc(C)cc(C)c1)S(=O)(=O)c1c(C)[nH]c(=O)[nH]c1=O (centres unmarked) | 0.737
26 | COc1ccc(CNC(=O)CNC(=O)c2c(C)nn(C)c2Cl)cc1 | -2.97
27 | COc1ccc(C(=O)C(C)Oc2cccc(NC(=O)c3cccc([N+](=O)[O-])c3)c2)cc1 (centres unmarked) | 7.23
28 | CCOC(=O)Cn1c(O)c(N=NC(=O)OC)c2ccccc21 | 9.56
29 | CCCCCn1c(=O)c(C(=O)NC(C)c2ccccc2)c(O)c2ccccc21 (centres unmarked) | 12.4
30 | CCc1noc(C)c1C(=O)Nc1nc(-c2ccccc2)cs1 | 7.35
31 | CC(=O)c1c(C)[nH]c(C(=O)CN2C(=O)NC(C)(C)C2=O)c1C | 6.04
32 | COc1ccc(S(=O)(=O)N2CCC(C(=O)NCCC(=O)NC3CC3)CC2)cc1 | 13
33 | Cc1ccc2nc3n(c(=O)c2c1)CCC3 | 1.93
34 | O=C(O)/C=C/c1ccc(O)cc1 | 0.181
35 | CCOc1ccccc1OCCCC(=O)OCC(=O)Nc1cccc(Cl)c1 | 4.03
36 | CCOC(=O)Nc1ccc2nc(Sc3ccc(Cl)cc3)sc2c1 | 15.2
37 | CSc1ccc(CCNC(=O)c2ccc(CS(=O)Cc3ccccc3Cl)o2)cc1 (centres unmarked) | 10.3
38 | COc1cc(C(=S)N2CCCCC2)ccc1OCC(=O)N1CCCC1 | -12.2
39 | O=C(NCC1CCN(Cc2ccccc2F)CC1)C1CCCN(c2ncnc3c2nc2n3CCCCC2)C1 (centres unmarked) | 19.5
40 | O=C(NC(NC(=S)Nc1ccccc1O)C(Cl)(Cl)Cl)c1ccco1 (centres unmarked) | 3.64
41 | Cn1c(=O)c2c(SCc3ccccn3)nc(CC(C)(C)C)nc2n(C)c1=O | 9.45
42 | NC(=O)C1CCN(C(=O)c2ccc3c(=O)n(Cc4cccc(Br)c4)c(=S)[nH]c3c2)CC1 | 6.12
43 | Cn1cc(/C=C/c2nc3ccccc3c(=O)n2-c2cccc([N+](=O)[O-])c2)c2ccccc21 | -0.779
44 | COCC(O)CSc1nc(C)[nH]c1[N+](=O)[O-] (centres unmarked) | -1.58
